This passage reports switch fluorescence ratio results from the supplement of paper PMC10126150.

Sequences with one replicate were seen in a single cluster, so their values are uncertain.

This data set concerns ATP. Put plainly: switch fluorescence ratio, 500 uM ATP over buffer (Cy3 cluster intensity, sum of 5 cycles each) (fold (ratio)); higher = stronger signal-on switching upon ATP binding; sequences stand for … in TCGTCGGCAGCGTCAGATGTGTATAAGAGACAGTTTTTTTTTTTTTTTTTTTTTTTTT…TC. As to conditions: aptamer strand: ATP DNA aptamer (quencher-CACCTGGGGGAGTATTGCGGAGGAAGG + anchor), 100 nM annealed; ATP concentration: 500 uM; one replicate. The procedure, abridged: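 Imaging in selection buffer was followed by imaging after 15 min with 500 uM ATP at 22 °C, for Cy3-labelled switching-strand clusters annealed to 100 nM quencher-labelled ATP aptamer on a modified Illumina MiSeq flow-cell. Five of these buffer/ATP cycles ran, separated by NaOH stripping and re-annealing. The fluorescence ratio per cluster is summed target-cycle over summed buffer-cycle Cy3 intensity, averaged per switch-domain sequence; clusters outside 100-1000 RFU were removed.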
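Also: ATP exposure 15 min at 22 °C before imaging.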

For the sequence CTCGCCGTGG, the switch fluorescence ratio was 0.999. For the sequence GAGAATAAGG, the switch fluorescence ratio was 0.942. Take GACGTCAAAC: the switch fluorescence ratio stood at 1.07. Consider AGTTTCGCCG, for which the switch fluorescence ratio was 1.06. On to AATTAACAGG, for which the switch fluorescence ratio worked out at 1.06. In the case of GGATGGTTGT, the switch fluorescence ratio came out at 1.03. TAATGCTCT: the switch fluorescence ratio came to 1.03.

As to TTGTCTACAT, the switch fluorescence ratio is 1.03. In the case of TTGCAGTGGG, the switch fluorescence ratio was 1.04. Take ATCCGCTTTT: the switch fluorescence ratio is 1.81. As for CTCTCGGTCA, the switch fluorescence ratio is 1.05. On to CAAGAGTATA, for which the switch fluorescence ratio stood at 0.96.

Take TTCCAGACAG: the switch fluorescence ratio was determined as 0.989. Turning to AGCCCAGCGG, the switch fluorescence ratio came to 1.09. With AGATGAACGG, the switch fluorescence ratio came out at 1.01.

As to ATAAACAAGG, the switch fluorescence ratio amounted to 1.02.

With CCGTCCGGAC, the switch fluorescence ratio is 1.1. As for GAGGACCTTG, the switch fluorescence ratio amounted to 0.957.

Take AGGAAAGAGA: the switch fluorescence ratio is 1.02.

On to GTATTATGGC, for which the switch fluorescence ratio is 0.979. In the case of CGGCAAGGAC, the switch fluorescence ratio came out at 2.7. Regarding TATTACTAA, the switch fluorescence ratio came to 1.

As to TCGTTCGTC, the switch fluorescence ratio stood at 0.971. Take ATGAAGTGTG: the switch fluorescence ratio is 0.99. With GTTCTGGGAC the figure was 0.987; with CGATGGATCG, 1.03; with AAGTTCCAGG, 1.17. Turning to TGTGTGCAGG, the switch fluorescence ratio was 0.915. Consider TATATCTCTT, for which the switch fluorescence ratio amounted to 1.02. For AAATGGTGAG, the switch fluorescence ratio worked out at 0.972.

For the sequence CACATGGGTC, the switch fluorescence ratio amounted to 1.04. In the case of ACGAAGCCAT, the switch fluorescence ratio amounted to 1.78. The same measure for CCACTGGTAA: 1.09; for AGAGTCCGGG: 0.991.

As to TTCGAGGGAT, the switch fluorescence ratio worked out at 1.01. The same measure for TTCGCGCTA: 1.07; for ATGTGGCTTG: 1.01; for GCTGATTCCT: 0.992. Regarding AGGGAGCTCT, the switch fluorescence ratio turned out to be 1.01. Regarding TACGAGGGCA, the switch fluorescence ratio was found to be 1.08. Turning to CCTGTTGCCT, the switch fluorescence ratio is 1.03.

As to GTGACGGGTA, the switch fluorescence ratio came out at 0.941. TTTAACCTGT: the switch fluorescence ratio turned out to be 1.04.

For the sequence GCCTACATTT, the switch fluorescence ratio stood at 1.

TAGGCCTCCA: the switch fluorescence ratio amounted to 1.02. As for TGAAAGAGT, the switch fluorescence ratio turned out to be 1.02. For the sequence ATTAGTTCCA, the switch fluorescence ratio amounted to 1.01. GTTATAAGAT: the switch fluorescence ratio came to 1.02. As to GACAGGAGCG, the switch fluorescence ratio is 1.05. Take AGACGTCGCA: the switch fluorescence ratio amounted to 1.03. On to GCGAGATTAG, for which the switch fluorescence ratio amounted to 0.995. Turning to GGGTAATATC, the switch fluorescence ratio was 1.08. On to CAACTCACGG, for which the switch fluorescence ratio was 1.46.

In the case of ACTTTTCCAG, the switch fluorescence ratio turned out to be 1.04. GCTATGCGCG: the switch fluorescence ratio is 0.984. With AATCTCTCAA the figure was 1.02; with GTTCAGACCT, 1.35. With CGACAATAGA, the switch fluorescence ratio came to 1.42.

On to CCCGTTCGC, for which the switch fluorescence ratio worked out at 1.22. Turning to CAGTATTTGA, the switch fluorescence ratio is 0.973. The same measure for TCGATCCGGA: 1.11. The same measure for CATTGACGGG: 0.998; for GGTGCCAAGC: 1.11; for GCCGCACGCT: 1.08. In the case of CCAAACGCCG, the switch fluorescence ratio is 1.03. With TCAACAGGAT the figure was 0.988. Regarding TAACAATGTA, the switch fluorescence ratio came to 1.05. Take AGTAAGTCTC: the switch fluorescence ratio is 0.974.

For TTCATGTTTT, the switch fluorescence ratio is 1.01. The same measure for GCTATGATGT: 0.976; for CGAGGGCGTT: 1; for CATGGAAGTA: 1. The same measure for CGAAAAAACA: 1.11; for CAATGGGAAC: 0.992.

In the case of TAGATGAGGA, the switch fluorescence ratio is 0.993. As to ATACGGCTAG, the switch fluorescence ratio was found to be 1.06.

With GAATTCTGGA, the switch fluorescence ratio was 0.961. GCCCTATGGA: the switch fluorescence ratio is 1.03. With CGGTTGCCTT the figure was 0.932. In the case of AAGTCCGAGA, the switch fluorescence ratio worked out at 1.03. For the sequence CGACGTCCGA, the switch fluorescence ratio turned out to be 1.04. With ACATAGAAAT the figure was 1.02. With GATCTAGACC the figure was 0.982; with AAGCTTAGGG, 1.01; with CGAAACTCAG, 1.01. Consider CACACATGTT, for which the switch fluorescence ratio stood at 1.05. On to GACTGCTCTA, for which the switch fluorescence ratio stood at 1.02. Regarding TAGGTACTG, the switch fluorescence ratio was determined as 1.02.

For CTGTCGCGGC, the switch fluorescence ratio was 1.08. In the case of TTGGGACTGC, the switch fluorescence ratio was found to be 1.03. Take CTGACATGGG: the switch fluorescence ratio stood at 1.

Consider TTACGCGCTT, for which the switch fluorescence ratio is 1.01. Turning to ACGTCGATGC, the switch fluorescence ratio was found to be 1.11. CACCAGATTT: the switch fluorescence ratio worked out at 1. TACGCTAGTC: the switch fluorescence ratio is 1.08. AAAGTAGATT: the switch fluorescence ratio was 1.01. Consider GCAAGTCTGC, for which the switch fluorescence ratio amounted to 1.04. With GGTCGGGCCG the figure was 0.998; with ATGGGGATGC, 1.05; with AAACTTGACG, 1.03.

With ATTCTTTAAT, the switch fluorescence ratio turned out to be 0.958.

In the case of TGAAACGCTA, the switch fluorescence ratio turned out to be 1.2. For CGCCACGGCG, the switch fluorescence ratio was 1.01. The same measure for GAGCTTCTT: 1.06. For AGTCCCCTTT, the switch fluorescence ratio was determined as 1.04. As for TTTTTCTTGC, the switch fluorescence ratio was 1.03. Regarding ATGGTGCGTA, the switch fluorescence ratio amounted to 1.12. Turning to CGTGGGCACT, the switch fluorescence ratio is 1.05. Regarding AATGTGGCAA, the switch fluorescence ratio turned out to be 1.08.

For AGAATTCACA, the switch fluorescence ratio is 1.01. On to ACATGTAAGT, for which the switch fluorescence ratio worked out at 1. With TTACGTTGAA the figure was 1.01; with GGAAAACGCG, 1.02; with CCATTACGAT, 1.06. On to TAGTGAGGGC, for which the switch fluorescence ratio worked out at 0.94. For TCGCCATAGT, the switch fluorescence ratio amounted to 1.23. The same measure for TGAATCGGCC: 1.02; for TCGAGCGACC: 1.16. As for CCGGGGATGA, the switch fluorescence ratio was found to be 1.01. In the case of TCCTCACTTC, the switch fluorescence ratio came out at 1.54.
